Reference: PubChem BioAssay AID1768 (National Center for Advancing Translational Sciences (NCATS), 2009)
Values joined by “and” are separate entries in the source; they are usually repeats but may differ in a detail not shown here. Identical values can stand only once. Screen size: about 270,000 compounds; about 620 (0.23%) were called active. Inconclusive means that the source gave no clear call. Such entries were picked first, then a sample of the others. The call rests on the fitted dose curve; in most records, active means well fitted inhibition curve with a large enough effect in the polarisation, with a control signal flat (not every such curve was filed as active); inconclusive means small, poorly fitted or top-dose-only effect, or effect the other way, or a change in a side signal; inactive means no such curve, though single readings can be large or run the other way; the % refers to the polarisation. Potencies of inconclusive entries are doubtful fits and often do not repeat. “Side channel” marks fits to a control or component signal instead of the main read-out.

target: Menin (Homo sapiens) (UniProt O00255); test: qHTS Assay for Inhibitors Targeting the Menin-MLL Interaction in MLL Related Leukemias: Competition With Texas Red Labeled MLL-derived Mutant Peptide; conditions: fluorescence polarization; series mostly up to 61.6 µM
Chain of UniProt O00255 (O00255 whole entry, looked up): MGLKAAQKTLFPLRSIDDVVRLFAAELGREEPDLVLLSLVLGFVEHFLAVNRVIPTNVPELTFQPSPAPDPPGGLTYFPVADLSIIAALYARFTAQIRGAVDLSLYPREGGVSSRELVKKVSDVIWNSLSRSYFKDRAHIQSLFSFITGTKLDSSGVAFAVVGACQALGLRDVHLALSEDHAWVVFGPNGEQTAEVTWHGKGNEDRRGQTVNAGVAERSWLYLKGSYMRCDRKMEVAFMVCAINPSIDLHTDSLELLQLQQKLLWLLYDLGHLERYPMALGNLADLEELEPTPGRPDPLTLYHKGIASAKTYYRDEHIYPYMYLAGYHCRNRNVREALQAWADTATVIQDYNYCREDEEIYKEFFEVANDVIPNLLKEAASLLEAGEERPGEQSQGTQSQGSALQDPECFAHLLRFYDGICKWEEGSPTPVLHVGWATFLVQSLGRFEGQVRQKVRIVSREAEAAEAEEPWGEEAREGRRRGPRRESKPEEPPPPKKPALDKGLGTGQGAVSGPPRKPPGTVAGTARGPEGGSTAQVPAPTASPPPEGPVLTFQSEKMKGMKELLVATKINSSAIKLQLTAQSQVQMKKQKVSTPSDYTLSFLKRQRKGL
Potency means the concentration at half of the fitted maximal effect; tags describe the fitted curve by direction and shape or compound fluorescence and quenching.

Potency, inactive:
O=C(OCc1nc2ccccc2s1)C1CCN(S(=O)(=O)c2cccs2)CC1
CCOC(=O)c1c(-c2ccc(F)cc2)csc1/N=C/N(C)C
CCC1c2ccc(C)n2CCN1C(=O)Nc1ccccc1C(=O)OC (stereo not drawn)
COc1ccc(CC(=O)Oc2ccc(C)cc2C)cc1
O=[N+]([O-])c1cc(Cl)ccc1N1CCCCC1
COC(=O)c1c(C(=O)OC)c2ccccn2c1C(=O)c1ccccc1
COC(=O)c1ccc(N)c(N=CC2=C(O)CC(C)(C)CC2=O)c1
CSc1nc(-c2ccccc2)c(-c2ccccc2)[nH]1
CCCNc1cc(C)c(C#N)c2nc3ccccc3n12
Cc1nn(CC(=O)OCC(=O)NC(C)c2ccccc2)c(C)c1[N+](=O)[O-] (stereo not drawn)

Potency, inconclusive:
Cc1cccnc1Nc1nc(-c2ccc(O)c(O)c2)cs1 25.1 µM [quencher, side channel, partial curve]
COc1cc(OC)cc(C(=O)Nc2ccc(Nc3ccccc3)cc2)c1 17.8 µM [quencher, side channel, partial curve]
O=C(CSC(=S)N1CCOCC1)Nc1nc(-c2ccccc2)c(-c2ccccc2)o1 28.2 µM [inhibitor, single point]
Cc1ccc(C)c(Nc2c([N+](=O)[O-])ccc3nonc23)c1 31.6 µM [inhibitor, single point]
CC(C)c1ccc(S(=O)(=O)/N=C2/C=C(Sc3ncn[nH]3)C(=O)c3ccccc32)cc1 20 µM [quencher, side channel, partial curve]
Cc1cccc(C(C(=O)NC2CCCCC2)N(C(=O)c2csnn2)C2CC2)c1 (stereo not drawn) 28.2 µM [inhibitor, single point]
Cc1ccc(Oc2ccc(-c3nc(N)nc(N)n3)cc2)cc1C 28.2 µM [quencher, side channel, single point]
COc1ccccc1C(=O)N1CCN(C(=O)COc2cccc(C)c2)CC1 39.8 µM [inhibitor, single point]
CCN(CC)CCn1c(NCc2nc3ccccc3n2Cc2ccccc2)nc2ccccc21 14.1 µM [fluorescent, side channel, partial curve]
COc1cc(/C=N/NC(N)=S)ccc1OCC(=O)Nc1ccc(C)cc1 39.8 µM [inhibitor, single point]
Cc1cc(NC(=O)CSc2ncnc3sc4c(c23)CCC(C)C4)no1 (stereo not drawn) 8.91 µM [inhibitor, single point]
CCOc1ccc(N(CC(=O)NC(C(C)C)C(C)C)S(=O)(=O)c2ccc(OC)c(OC)c2)cc1 11.2 µM [fluorescent, side channel, partial curve]
O=C(NCCCO)c1ccc2nc(-c3ccco3)c(-c3ccco3)nc2c1 14.1 µM [quencher, side channel, partial curve]
CCOc1ccc(C(O)C(CN2CCOCC2)c2ccccc2)cc1 (stereo not drawn) 31.6 µM [inhibitor, partial curve]
O=C(N/N=C/c1c(O)n(-c2ccccc2Cl)c(=O)c2ccccc12)C1COc2ccccc2O1 (stereo not drawn) 25.1 µM [quencher, side channel, partial curve]
Cc1onc(-c2ccccc2)c1C(=O)NNC(=S)NC(=O)/C=C/c1ccccc1 14.1 µM [quencher, side channel, partial curve]
CCOc1cc(NC(=O)c2ccccn2)c(OCC)cc1NC(=O)c1ccc(OC)cc1 14.1 µM [quencher, side channel, partial curve]
CC(/C=C/c1ccccc1)=N\NC(=O)c1ccc(Br)cc1 20 µM [fluorescent, side channel, single point]
O=C(CC1S/C(=N\S(=O)(=O)c2ccc(F)cc2)N(c2ccccc2)C1=O)Nc1ccccc1 (stereo not drawn) 11.2 µM [quencher, side channel, partial curve]
CCS(=O)(=O)Nc1cccc(C2=NN(S(C)(=O)=O)C(c3ccccc3)C2)c1 (stereo not drawn) 31.6 µM [fluorescent, side channel, partial curve]
COc1cc(/C=N/NC(=S)Nc2cccc(S(=O)(=O)N(C)C)c2)cc(OC)c1O 25.1 µM [quencher, side channel, partial curve]
CCN=c1scc(C)n1/N=C/c1cc(Br)c(O)c(Br)c1 25.1 µM [quencher, side channel, partial curve]
CCOCCn1c(SCc2c(F)cccc2Cl)nc2c1c(=O)[nH]c(=O)n2C 44.7 µM [inhibitor, single point]
OC(CNC1CCCC1)COc1ccc(-c2ccccc2)cc1 (stereo not drawn) 28.2 µM [fluorescent, side channel, single point]
COc1ccc(C2=NN(c3ccccc3)C(c3cccs3)C2)cc1 (stereo not drawn) 2.51 µM [quencher, side channel, full curve]
COc1ccc(S(=O)(=O)Nc2ccc(N3CCOCC3)cc2)cc1Br 31.6 µM [quencher, side channel, single point]
CC(C)CNC(=O)CSc1nnc(-c2ccccn2)n1Cc1ccccc1 28.2 µM [fluorescent, side channel, single point]
Cc1nc(N)sc1N=Nc1ccc(F)cc1 25.1 µM [quencher, side channel, partial curve]
COc1ccc(NC(=O)CS(=O)(=O)Cc2nc(-c3ccc(C)cc3)oc2C)cc1 25.1 µM [fluorescent, side channel, single point]
Cc1c(C(=O)NN2CCOCC2)nn(-c2ccc(Cl)cc2Cl)c1-c1ccc(I)cc1 10 µM [fluorescent, side channel, full curve, poor fit]
C#CCN(CC=C)C(=O)c1ccc2nc(C3CCCCC3)oc2c1 17.8 µM [fluorescent, side channel, partial curve]
Cc1cc(C)cc(NC(=S)N(Cc2ccc(Cl)cc2)Cc2ccc(C(=O)O)cc2)c1 14.1 µM [quencher, side channel, partial curve]
Cc1cc(OCc2nn[nH]n2)c2c(C)c(Cc3ccccc3)c(=O)oc2c1 12.6 µM [quencher, side channel, partial curve]
C=Cc1ccc(Cn2nc(-c3ccc(C)cc3)ccc2=O)cc1 25.1 µM [fluorescent, side channel, single point]
COc1ccc(-c2ncccc2OC(=O)C23CC4CC(CC(C4)C2)C3)cc1 8.91 µM [inhibitor, single point]
Cc1cccc(N(CC(=O)NCc2ccco2)C(=O)CNS(=O)(=O)c2ccc(F)cc2)c1 17.8 µM [inhibitor, partial curve]
Cc1nn(-c2ccccc2Cl)c(Cl)c1/C=N/Nc1cccc(C(=O)O)c1 39.8 µM [quencher, side channel, single point]
CCCc1ccc(S(=O)(=O)NCCc2ccncc2)cc1 0.708 µM [inhibitor, full curve, poor fit]
Cc1cccc(C(=O)Nc2scc(CC(C)C)c2C(=O)O)c1 31.6 µM [quencher, side channel, single point]
CCc1ccc2nc(Nc3ccc(OC)cc3OC)c(C#N)cc2c1 15.8 µM [quencher, side channel, partial curve]
COc1ccc2nc(NC(=O)Nc3ccccc3)sc2c1 2.82 µM [quencher, side channel, full curve] and 12.6 µM [quencher, side channel, partial curve]
C/C(=N/NC(=O)c1ccccc1)C(=O)O 39.8 µM [quencher, side channel, single point]
Cc1ccc(S(=O)(=O)N2CCN(C(=O)C3CCN(C(=O)c4ccccc4C)CC3)CC2)cc1C 12.6 µM [inhibitor, partial curve]
CC(NCc1nc2ccccc2n1C)C12CC3CC(CC(C3)C1)C2 (stereo not drawn) 6.31 µM [fluorescent, side channel, partial curve]
CCCOc1ccc(/C=N/Nc2ccccc2[N+](=O)[O-])c(O)c1 39.8 µM [quencher, side channel, partial curve]
O=C(CN(C(=O)CCC(=O)Nc1nccs1)c1cccc(F)c1)NCc1ccc2c(c1)OCO2 39.8 µM [fluorescent, side channel, single point]
O=C(NC1C2CC3CC(C2)CC1C3)c1ccc(Br)o1 (stereo not drawn) 35.5 µM [fluorescent, side channel, single point]
CC(=O)Oc1ccc(C(=O)Cc2ccc3ccccc3n2)c(O)c1C 7.94 µM [quencher, side channel, full curve, poor fit]
